Screen size: about 350,000 compounds; about 9,900 (2.8%) were called active. Inconclusive means that the source gave no clear call. Such entries were picked first, then a sample of the others. Calls come from the whole dose curve; as a rule, active = well fitted activation curve with a large enough effect; inconclusive = small, poorly fitted or top-dose-only effect; inactive = no such curve, though single readings can be large or run the other way. No potency is given beside an inconclusive call; the fits are too rough.
assay: A quantitative high throughput screen for small molecules that induce DNA re-replication in MCF 10a normal breast cells.; note: nearly all actives have a fitted effect of over 50% in size; for activity, positive = re-replication: % of control where 0% means no effect; details: MCF 10A DNA re-replication, Hoechst nuclear intensity, 48 h; activity, positive = re-replication: at 46.1 µM (top of the series)
Potency is the fitted concentration of half-maximal effect; tags give direction and shape of the fitted curve.

Compound | Potency | activity, positive = re-replication
CCOC(=O)C(C)Oc1cccc2c(=O)n(CC(=O)NCc3ccco3)ccc12 (centres undefined) | inconclusive [activator, partial curve, poor fit] | –
CO/N=C/c1cccn1-c1nccc(N(C)C)c1C#N | – | inactive: -2.73%
COc1ccc2sc(N3C(=O)CC(Cc4cccc(C)c4)C3=O)nc2c1 (centres undefined) | inconclusive [activator, single point] | –
COc1cc(C(=O)N/N=C/c2cc([N+](=O)[O-])cs2)cc(OC)c1OC | active: 5.8 µM | –
CCOC(=O)c1sc(C)c2c1NC1(CCCCCC1)NC2=O | inconclusive [activator, full curve, poor fit] | –
CC12CCC(C(=O)Nc3ccccc3Cl)(C(Br)C1=O)C2(C)C (centres undefined) | inconclusive [activator, partial curve, poor fit] | –
COc1ccc(NCN2C(=O)CCC2=O)cc1 | inconclusive [activator, partial curve, poor fit] | –
c1ccc(C(c2ccccc2)N2CCN(Cc3nnnn3C3CCCCC3)CC2)cc1 | inconclusive [activator, single point] | –
Cc1ccc(Oc2ccc(S(=O)(=O)N3CCOCC3)cc2C(N)=O)c(-n2nc3ccccc3n2)c1 | active: 4.61 µM | –
C#CCOC(=O)C[N+](C)(C)C/C=C/c1ccccc1 | inconclusive [activator, single point] | –
CCC(C)c1ccc(NC(=O)Nc2cnccn2)cc1 (centres undefined) | active: 5.8 µM | –
CC1CCCN(c2c([N+](=O)[O-])c(=O)oc3ccccc23)C1 (centres undefined) | – | inactive: 3.62%
Cc1cc(C)nc(Sc2ccc([N+](=O)[O-])cc2[N+](=O)[O-])n1 | inconclusive [activator, partial curve, poor fit] | –
CCCCc1cc(=O)oc2cc(O)cc(O)c12 | inconclusive [activator, single point] | –
Nc1c(-c2cccs2)cnn1-c1nc(-c2ccc(Cl)cc2Cl)cs1 | inconclusive [activator, single point] | –
Cc1ccc(-c2cn3cccnc3n2)cc1NC(=O)c1c(-c2ccccc2Cl)noc1C | inconclusive [activator, single point] | –
COc1ccc(Cl)cc1/C=C1/C(=O)ON=C1C | – | inactive: 0.017%
COc1ccc(/C=C2\SC(=O)N(CCCC(=O)Nc3cc(Cl)ccc3C(=O)O)C2=O)cc1 | – | inactive: 4.46%
O=C(NC(=S)Nc1ccccc1N1CCOCC1)c1ccc(-c2cccc(Cl)c2)o1 | inconclusive [activator, partial curve, poor fit] | –

From PubChem BioAssay AID624296 (National Center for Advancing Translational Sciences (NCATS), 2012)
